Assay results from PubChem BioAssay AID2147 (National Center for Advancing Translational Sciences (NCATS), 2009).
Among all 230,000 compounds or so, about 3,600 (1.6%) were called active. This list was built around the results that the source calls inconclusive (neither active nor inactive); the mix of calls is not that of the screen. Calls follow the shape of the dose curve; as a rule, active = well fitted inhibition curve with a large enough effect (not every such curve was filed as active); inconclusive = small, poorly fitted or top-dose-only effect, or another doubt; inactive = no such curve, though single readings can be large or run the other way. Potencies beside an inconclusive call are fits to weak or partial responses and may not hold up.

molecular target: Lysine-specific demethylase 4E (Homo sapiens) (UniProt B2RXH2); assay: qHTS Assay for Inhibitors of Human Jumonji Domain Containing 2E (JMJD2E); conditions: JMJD2E catalytic domain, FDH-coupled NADH fluorescence (FDH is formaldehyde dehydrogenase); series mostly up to 57.1 µM
UniProt B2RXH2, sequence (B2RXH2 whole entry, looked up, the tested form may be a part): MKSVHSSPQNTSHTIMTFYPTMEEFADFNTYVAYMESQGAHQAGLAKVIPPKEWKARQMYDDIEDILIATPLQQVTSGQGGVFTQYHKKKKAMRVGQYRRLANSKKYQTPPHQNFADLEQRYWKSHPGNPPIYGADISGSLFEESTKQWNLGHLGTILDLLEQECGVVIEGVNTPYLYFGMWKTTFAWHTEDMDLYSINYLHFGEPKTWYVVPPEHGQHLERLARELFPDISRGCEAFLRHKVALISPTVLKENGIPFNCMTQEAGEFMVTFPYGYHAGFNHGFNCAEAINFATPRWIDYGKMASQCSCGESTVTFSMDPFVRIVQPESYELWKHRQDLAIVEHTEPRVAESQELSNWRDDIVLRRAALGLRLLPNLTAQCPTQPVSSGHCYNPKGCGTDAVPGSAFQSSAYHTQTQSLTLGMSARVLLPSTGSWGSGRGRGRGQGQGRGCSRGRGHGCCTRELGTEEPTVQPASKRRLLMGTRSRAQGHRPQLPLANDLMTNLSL
Also: nearly all actives have a fitted effect of over 50% in size.
Potency is read from the fitted curve at half-maximal effect; tags tell the direction and shape of the fitted curve.

Compound | Potency
CCCc1cc(C(=O)Nc2cc(Br)ccc2O)no1 | inactive
Cc1sc2nc(CN3CCCC3)nc(NCc3ccncc3)c2c1C | inconclusive: 22.4 µM [inhibitor, partial curve]
COc1ccc(-c2csc(/C(C#N)=C/Nc3cc4oc5ccccc5c4cc3OC)n2)cc1 | inconclusive: 31.6 µM [inhibitor, single point]
CCOC(=O)c1[nH]n(-c2ccc(Cl)cc2)c(=O)c1C | inactive
C=CCOC(=O)C1=C(C)OC(N)=C(C#N)C1c1ccoc1 (stereo not drawn) | inconclusive: 39.8 µM [inhibitor, single point]
O=C1/C(=C\c2ccco2)CCC/C1=C\c1ccco1 | inactive
CCOC(=O)CSc1ncc(OC)c(Sc2ccc(Cl)cc2)n1 | inactive
COc1ccc(CNc2ncncc2-c2ccccc2Cl)c(OC)c1 | inactive
CCCCN1CCc2c([nH]c3ccc(C)cc23)C1=O | inactive
Cc1cc(C)cc(-n2c(C)cc(/C=N/NC(=O)c3ccncc3)c2C)c1 | inconclusive: 35.5 µM [inhibitor, single point]
O=C(Nc1cccc(-c2cc3ccccc3oc2=O)c1)c1ccc(Br)o1 | inconclusive: 35.5 µM [inhibitor, partial curve]
CN(C)c1c2ccccc2nc2c(F)c(F)c(F)c(F)c12 | inconclusive: 25.1 µM [inhibitor, partial curve]
Nc1ccc(C(=O)N2CCCC2)cc1 | inactive
O=C(Nc1ccc(N2CCCCC2)cc1)c1ccccc1 | inactive
CN(Cc1cccnc1)Cc1cn(Cc2ccccc2)nc1-c1ccc2c(c1)OCO2 | inconclusive: 39.8 µM [inhibitor, single point]
CCn1c(/C=C/Nc2ccccc2)[n+](CC)c2ccc(Cl)cc21 | inactive
Cc1ccc([N+](=O)[O-])cc1NC(=O)Nc1cccc(F)c1 | inactive
Cc1cc(-c2ccc(Cl)cc2)c(C#N)c(N)n1 | inconclusive: 28.2 µM [inhibitor, partial curve]
NNC(=O)c1ccc2nc(-c3ccc(Br)cc3)cn2c1 | inconclusive: 25.1 µM [inhibitor, partial curve]
COc1ccccc1/C=C/C=N\N1CCN(Cc2ccccc2Cl)CC1 | inactive
O=Nc1c(-c2cccc([N+](=O)[O-])c2)nc2ncccn12 | inconclusive: 25.1 µM [inhibitor, single point]
c1nc2sc3c(c2c2nnnn12)CCCC3 | inconclusive: 31.6 µM [inhibitor, partial curve]
CC1CCN(Cc2c(O)ccc3c2O/C(=C\c2ccco2)C3=O)CC1 | inconclusive: 28.2 µM [inhibitor, partial curve]
